First the molecules themselves.
T1: RBFOX1 RRM RbFoxmut (Fox-RRM*) (Homo sapiens, UniProt Q9NWB1 109-208, R118D;E147R;N151S;E152T)
T1 sequence: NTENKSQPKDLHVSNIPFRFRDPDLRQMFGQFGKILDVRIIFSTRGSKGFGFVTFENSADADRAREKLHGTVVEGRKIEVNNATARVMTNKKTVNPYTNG

B1: UCCCUUU (DNA:RNA)
RNA: GGGAGACCGGAAUUCAGAUUGUCCUCCCUUUUUAAAUCCCGUCGUAGCCACCA
DNA 1: CAATCTGAATTCCGGTCTCCC
DNA 2: TGGTGGCTACGACGGGATT
B2: UUAUGUG (DNA:RNA)
RNA: B1 RNA with C26U, C27A, C28U, U29G, U31G
DNA 1: CAATCTGAATTCCGGTCTCCC
DNA 2: TGGTGGCTACGACGGGATT
B3: GGAAGGC (DNA:RNA)
RNA: GGGAGACCGGAAUUCAGAUUGUCCGGAAGGCUUAAAUCCCGUCGUAGCCACCA
DNA 1: CAATCTGAATTCCGGTCTCCC
DNA 2: TGGTGGCTACGACGGGATT
B4: AGCGUCU (DNA:RNA)
RNA: B1 RNA with U25A, C26G, C28G, U30C
DNA 1: CAATCTGAATTCCGGTCTCCC
DNA 2: TGGTGGCTACGACGGGATT
B5: UUUCUAC (DNA:RNA)
RNA: B1 RNA with C26U, C27U, U30A, U31C
DNA 1: CAATCTGAATTCCGGTCTCCC
DNA 2: TGGTGGCTACGACGGGATT
B6: GGAUGCG (DNA:RNA)
RNA: B3 RNA with A28U, G30C, C31G
DNA 1: CAATCTGAATTCCGGTCTCCC
DNA 2: TGGTGGCTACGACGGGATT
B7: CCUAGUG (DNA:RNA)
RNA: B3 RNA with G25C, G26C, A27U, G30U, C31G
DNA 1: CAATCTGAATTCCGGTCTCCC
DNA 2: TGGTGGCTACGACGGGATT
B8: UUCGCCU (DNA:RNA)
RNA: B1 RNA with C26U, C28G, U29C, U30C
DNA 1: CAATCTGAATTCCGGTCTCCC
DNA 2: TGGTGGCTACGACGGGATT
B9: GUUAGUU (DNA:RNA)
RNA: B3 RNA with G26U, A27U, G30U, C31U
DNA 1: CAATCTGAATTCCGGTCTCCC
DNA 2: TGGTGGCTACGACGGGATT
B10: CGUCUAC (DNA:RNA)
RNA: B3 RNA with G25C, A27U, A28C, G29U, G30A
DNA 1: CAATCTGAATTCCGGTCTCCC
DNA 2: TGGTGGCTACGACGGGATT
B11: UUUGCUU (DNA:RNA)
RNA: B1 RNA with C26U, C27U, C28G, U29C
DNA 1: CAATCTGAATTCCGGTCTCCC
DNA 2: TGGTGGCTACGACGGGATT
B12: GAAAAGC (DNA:RNA)
RNA: B3 RNA with G26A, G29A
DNA 1: CAATCTGAATTCCGGTCTCCC
DNA 2: TGGTGGCTACGACGGGATT
B13: AACGCCU (DNA:RNA)
RNA: B1 RNA with U25A, C26A, C28G, U29C, U30C
DNA 1: CAATCTGAATTCCGGTCTCCC
DNA 2: TGGTGGCTACGACGGGATT
B14: UAUAUUG (DNA:RNA)
RNA: B1 RNA with C26A, C27U, C28A, U31G
DNA 1: CAATCTGAATTCCGGTCTCCC
DNA 2: TGGTGGCTACGACGGGATT
B15: GCUGGCU (DNA:RNA)
RNA: B3 RNA with G26C, A27U, A28G, G30C, C31U
DNA 1: CAATCTGAATTCCGGTCTCCC
DNA 2: TGGTGGCTACGACGGGATT
B16: UGGUCUU (DNA:RNA)
RNA: B1 RNA with C26G, C27G, C28U, U29C
DNA 1: CAATCTGAATTCCGGTCTCCC
DNA 2: TGGTGGCTACGACGGGATT
B17: AUUCCAC (DNA:RNA)
RNA: B3 RNA with G25A, G26U, A27U, A28C, G29C, G30A
DNA 1: CAATCTGAATTCCGGTCTCCC
DNA 2: TGGTGGCTACGACGGGATT
B18: GCUUAGU (DNA:RNA)
RNA: B3 RNA with G26C, A27U, A28U, G29A, C31U
DNA 1: CAATCTGAATTCCGGTCTCCC
DNA 2: TGGTGGCTACGACGGGATT
B19: CGCAGAC (DNA:RNA)
RNA: B3 RNA with G25C, A27C, G30A
DNA 1: CAATCTGAATTCCGGTCTCCC
DNA 2: TGGTGGCTACGACGGGATT
B20: CUACGUA (DNA:RNA)
RNA: B3 RNA with G25C, G26U, A28C, G30U, C31A
DNA 1: CAATCTGAATTCCGGTCTCCC
DNA 2: TGGTGGCTACGACGGGATT
B21: CGCAUCU (DNA:RNA)
RNA: B1 RNA with U25C, C26G, C28A, U30C
DNA 1: CAATCTGAATTCCGGTCTCCC
DNA 2: TGGTGGCTACGACGGGATT
B22: GUACGGC (DNA:RNA)
RNA: B3 RNA with G26U, A28C
DNA 1: CAATCTGAATTCCGGTCTCCC
DNA 2: TGGTGGCTACGACGGGATT
B23: AGAGGGA (DNA:RNA)
RNA: B3 RNA with G25A, A28G, C31A
DNA 1: CAATCTGAATTCCGGTCTCCC
DNA 2: TGGTGGCTACGACGGGATT
B24: CUCAAUC (DNA:RNA)
RNA: B3 RNA with G25C, G26U, A27C, G29A, G30U
DNA 1: CAATCTGAATTCCGGTCTCCC
DNA 2: TGGTGGCTACGACGGGATT
B25: CUCUGAG (DNA:RNA)
RNA: B3 RNA with G25C, G26U, A27C, A28U, G30A, C31G
DNA 1: CAATCTGAATTCCGGTCTCCC
DNA 2: TGGTGGCTACGACGGGATT
B26: CAUGAUG (DNA:RNA)
RNA: B1 RNA with U25C, C26A, C27U, C28G, U29A, U31G
DNA 1: CAATCTGAATTCCGGTCTCCC
DNA 2: TGGTGGCTACGACGGGATT
B27: AAACGGU (DNA:RNA)
RNA: B3 RNA with G25A, G26A, A28C, C31U
DNA 1: CAATCTGAATTCCGGTCTCCC
DNA 2: TGGTGGCTACGACGGGATT
B28: GACGGUA (DNA:RNA)
RNA: B3 RNA with G26A, A27C, A28G, G30U, C31A
DNA 1: CAATCTGAATTCCGGTCTCCC
DNA 2: TGGTGGCTACGACGGGATT
B29: CAGCUGG (DNA:RNA)
RNA: B1 RNA with U25C, C26A, C27G, U30G, U31G
DNA 1: CAATCTGAATTCCGGTCTCCC
DNA 2: TGGTGGCTACGACGGGATT
B30: UCGUCGU (DNA:RNA)
RNA: B1 RNA with C27G, C28U, U29C, U30G
DNA 1: CAATCTGAATTCCGGTCTCCC
DNA 2: TGGTGGCTACGACGGGATT
B31: CCAAUAC (DNA:RNA)
RNA: B3 RNA with G25C, G26C, G29U, G30A
DNA 1: CAATCTGAATTCCGGTCTCCC
DNA 2: TGGTGGCTACGACGGGATT

Substitutions are numbered along the chain they refer to; changes in the protein carry UniProt numbers. The list shows a part of the results.

The target of the test is T1, RBFOX1 RRM RbFoxmut (Fox-RRM*). Kind of test: EMSA; HiTS-Eq, 1 nM pool, 10 min; buffer printed only for the single-RNA assays: 10 mM Tris pH 7.5, 150 mM NaCl, 3.4 mM EDTA, 0.001% NP-40, 30 C. Conditions: tags: His6 N-terminal (pET28a); label: 5' 32P. The method, boiled down: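 Relative association constants, normalised to the cognate motif, were derived by comparing read counts of each RNA species with those of the control reaction. The RNA sequenced was the free fraction, separated by 8% native PAGE after a 10 min equilibration in 50 µL of 1 nM 5′-radiolabelled RNA (7 randomized nucleotides) with increasing concentrations of purified wild-type or mutant RbFox RRM.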
On the technique in general: In EMSA bound probe runs differently from free probe, usually more slowly.
As to B1, the binding signal was 0.0764 KA relative to UGCAUGU.

B2: the binding signal was 0.124 KA relative to UGCAUGU.

With B3, the binding signal is 0.0498 KA relative to UGCAUGU.

For B4, the binding signal was 0.0943 KA relative to UGCAUGU.

As for B5, the binding signal was 0.0848 KA relative to UGCAUGU.

On to B6, for which the binding signal was 0.231 KA relative to UGCAUGU.

Take B7: the binding signal was 0.127 KA relative to UGCAUGU.

For B8, the binding signal is 0.0794 KA relative to UGCAUGU.

As to B9, the binding signal is 0.117 KA relative to UGCAUGU.

Regarding B10, the binding signal is 0.114 KA relative to UGCAUGU.

On to B11, for which the binding signal is 0.0734 KA relative to UGCAUGU.

For the molecule B12, the binding signal was 0.0796 KA relative to UGCAUGU.

For the molecule B13, the binding signal is 0.0706 KA relative to UGCAUGU.

On to B14, for which the binding signal is 0.132 KA relative to UGCAUGU.

As for B15, the binding signal was 0.116 KA relative to UGCAUGU.

Turning to B16, the binding signal was 0.0776 KA relative to UGCAUGU.

In the case of B17, the binding signal was 0.0586 KA relative to UGCAUGU.

Regarding B18, the binding signal was 0.143 KA relative to UGCAUGU.

As for B19, the binding signal is 0.104 KA relative to UGCAUGU.

Regarding B20, the binding signal is 0.124 KA relative to UGCAUGU.

Take B21: the binding signal is 0.395 KA relative to UGCAUGU.

As to B22, the binding signal was 0.102 KA relative to UGCAUGU.

For B23, the binding signal was 0.0855 KA relative to UGCAUGU.

Turning to B24, the binding signal was 0.059 KA relative to UGCAUGU.

As for B25, the binding signal was 0.0972 KA relative to UGCAUGU.

B26: the binding signal was 0.114 KA relative to UGCAUGU.

In the case of B27, the binding signal is 0.0743 KA relative to UGCAUGU.

Turning to B28, the binding signal was 0.129 KA relative to UGCAUGU.

Turning to B29, the binding signal was 0.105 KA relative to UGCAUGU.

Take B30: the binding signal is 0.109 KA relative to UGCAUGU.

Take B31: the binding signal is 0.0931 KA relative to UGCAUGU.

(Values after publication PMC9911399, “Two distinct binding modes provide the RNA-binding protein RbFox with extraordinary sequence specificity”.)
